# Reference: the BET-seq Pho4 binding data (Le et al. 2018)
# The other results are listed elsewhere or left out. The energies were worked out here from pooled read counts, against the library average; single values are noisy.
# Biological target: T1, Pho4 (S. cerevisiae) (UniProt P07270)
# T1 sequence: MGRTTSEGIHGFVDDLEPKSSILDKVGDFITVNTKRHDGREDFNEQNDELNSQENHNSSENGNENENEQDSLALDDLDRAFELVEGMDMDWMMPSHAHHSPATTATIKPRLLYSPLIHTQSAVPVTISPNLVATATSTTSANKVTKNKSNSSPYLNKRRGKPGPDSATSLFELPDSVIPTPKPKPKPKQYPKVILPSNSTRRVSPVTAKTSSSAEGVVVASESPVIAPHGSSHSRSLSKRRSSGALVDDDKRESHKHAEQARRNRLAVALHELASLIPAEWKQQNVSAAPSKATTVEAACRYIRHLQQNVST
# Test: relative binding free energy (BET-seq); higher = weaker binding
# Conditions: reference: library average
row,Sequence,relative binding free energy [kcal/mol]
1,TGGTGCACGTGAAGGT,0.35
2,GTTTACACGTGCTTAT,0.07
3,ACTTGCACGTGTTTGT,-0.03
4,ATTTTCACGTGACAAT,0.35
5,GGGTTCACGTGATGGG,0.52
6,GTTACCACGTGGGGAG,-0.15
7,TAGGGCACGTGATAAT,0.02
8,GTTACCACGTGGGTGG,-0.22
9,TGATTCACGTGGAGCT,0.24
10,AGCTGCACGTGGTGTA,-0.21
11,TGGGTCACGTGGTTTG,0.21
12,GGTGCCACGTGCGCGG,-0.2
13,AAGTTCACGTGAGTTA,0.34
14,TTAAGCACGTGAGGAA,0.22
15,TTAAGCACGTGGAATA,0.04
16,GATGTCACGTGCTAGG,0.01
17,ATTGTCACGTGTTAAA,0.08
18,AAATACACGTGAAGTG,0.25
19,CTAGGCACGTGTGTGC,-0.11
20,GGGAACACGTGTTAGG,0.07
21,CGTTTCACGTGAGTTT,0.31
22,GTTAGCACGTGTATGA,0.05
23,ATAGGCACGTGGCTTT,-0.18
24,AATCGCACGTGGGGTT,-0.11
25,GGTCTCACGTGGTAGA,0.29
26,TTTTTCACGTGTCCAT,0.24

row,Sequence,relative binding free energy [kcal/mol]
1,TATGCCACGTGTTGGA,-0.17
2,ATTGGCACGTGTATTG,-0.01
3,TGTCTCACGTGTAAGT,0.2
4,CGTTTCACGTGGATAT,0.32
5,TAATCCACGTGTGTGG,0.12
6,TTGTTCACGTGGATCG,0.22
7,AAGGTCACGTGCGGTG,-0.1
8,GATTTCACGTGATGTT,0.41
9,GGTCTCACGTGGGCGC,0.22
10,GGATTCACGTGTAGCG,0.3
11,AGTAACACGTGGTCAT,0.03
12,AGTTACACGTGTGTTA,0.25
13,GTTTCCACGTGTTTGT,0.08
14,TGGTGCACGTGCGAGG,0.01
15,TATCACACGTGGTTGG,-0.03
16,ACGTGCACGTGGATGG,-0.08
17,TATGCCACGTGGTATT,-0.25
18,GGGGGCACGTGACGAG,0.08
19,GTGTTCACGTGCGAGG,0.25
20,TTCATCACGTGGGGAT,0.11
21,GTTTTCACGTGAGCGG,0.4
22,GTATACACGTGTCTGT,0.03
23,GGCGACACGTGTGTGT,0.16
24,CGGGTCACGTGGGTGC,-0.05
25,GGAATCACGTGTGGGT,0.22
26,GATTGCACGTGCGGGC,0

row,Sequence,relative binding free energy [kcal/mol]
1,TCGGGCACGTGCGGTA,-0.28
2,CGTGGCACGTGTTTGA,-0.06
3,AGCTGCACGTGGGTTT,-0.11
4,GGCCGCACGTGTGTTT,0.03
5,TATGGCACGTGTAGCT,-0.03
6,TTTGGCACGTGATTAC,0.02
7,TTTCGCACGTGTCGGT,0.04
8,AGAAGCACGTGGGAAG,-0.17
9,TAATTCACGTGGAGGG,0.26
10,TTTGGCACGTGACCTT,-0.06
11,GACGGCACGTGGTTTG,-0.05
12,AAGGACACGTGCGTTT,-0.01
13,GTGTGCACGTGGCTTA,-0.01
14,CTTATCACGTGAGTGG,0.28
15,ATTAACACGTGAGGGT,0.21
16,TTTGGCACGTGAGCGG,0.12
17,GTTCTCACGTGGTATT,0.33
18,GGTAGCACGTGTTGTC,-0.15
19,TTGTACACGTGGTGAA,-0.07
20,TTCGTCACGTGGAATG,0.14
21,GTCTGCACGTGTGTCT,0.03
22,ATGGTCACGTGAAAGT,0.44
23,TGTGGCACGTGTTGCC,-0.08
24,GTATTCACGTGTTGTG,0.29
25,TTAGGCACGTGGAGCG,-0.07
26,CTTTTCACGTGTGGAG,0.35

row,Sequence,relative binding free energy [kcal/mol]
1,TTGCGCACGTGGAGTT,-0.08
2,GGTGACACGTGTAAGT,0.15
3,GAGTCCACGTGATGGG,0.14
4,TGGTCCACGTGGGGGT,-0.13
5,GGGTTCACGTGCAAAT,0.37
6,TGTTGCACGTGGGTGT,-0.05
7,TTGTCCACGTGCTTTA,0.11
8,ACAAGCACGTGTTAGT,-0.01
9,TAAGGCACGTGTAATA,-0.06
10,TCAGGCACGTGCTGGT,-0.22
11,GGCGGCACGTGTGGCG,-0.04
12,GGCTGCACGTGCCGGG,-0.09
13,TTTTGCACGTGTACGA,0.03
14,ATGTACACGTGCGTTA,-0.08
15,AGGGGCACGTGATGAG,0
16,CGTAGCACGTGTTAAT,-0.07
17,ATTCGCACGTGTTAAT,0.11
18,TATAGCACGTGGGTGT,-0.19
19,TTACGCACGTGTGTAG,-0.14
20,AGGTGCACGTGAAAGC,0.2
21,TGCATCACGTGGGAGA,0.07
22,AAGTTCACGTGTATTG,0.2
23,TGTAACACGTGTGGGA,0.15
24,GAGAACACGTGTTGAT,0.26
25,AGGACCACGTGAGGGG,0.09
26,ACATGCACGTGGTTGT,-0.14

row,Sequence,relative binding free energy [kcal/mol]
1,TAGTACACGTGTGATC,0.33
2,TTTTGCACGTGCGTTT,-0.09
3,TGGGACACGTGCAGGG,-0.02
4,GTTTTCACGTGAGTTA,0.35
5,TAGGACACGTGAGGGC,0.21
6,GTGAGCACGTGGGTCA,-0.18
7,ATTGTCACGTGGCCGG,-0.01
8,GTCCACACGTGGGGGG,-0.02
9,TGCGTCACGTGAAGGC,0.37
10,AAGGGCACGTGTTAAG,-0.02
11,AGAGTCACGTGGCTTG,0.05
12,TTTTTCACGTGGCAAG,0.31
13,ACTTTCACGTGGGATG,0.09
14,ATGTTCACGTGGGCAG,0.08
15,TTGGGCACGTGGATGG,-0.01
16,TAATTCACGTGTGTAG,0.28
17,GGAGGCACGTGGATGT,-0.12
18,GTATTCACGTGTGGAG,0.35
19,AGATACACGTGGGGAG,0.04
20,GGACTCACGTGAGGTT,0.44
21,TGAGACACGTGGCGGT,0
22,ACGGTCACGTGGTGCG,0
23,CCATTCACGTGGTTTT,0.27
24,CCTGGCACGTGTGGAG,0.02
25,CTATGCACGTGCGTTT,-0.11
26,TCGTACACGTGGGGAT,-0.19

row,Sequence,relative binding free energy [kcal/mol]
1,AAGGTCACGTGGTATC,0.21
2,CGTAGCACGTGATTGG,0.05
3,TATGTCACGTGTTTCA,-0.07
4,GTGTTCACGTGGAATA,0.32
5,GGGGGCACGTGTGGTT,0.05
6,AGATACACGTGAATGT,0.25
7,TCAGTCACGTGGTATG,-0.04
8,CTTTTCACGTGGGTTA,0.21
9,TTATGCACGTGGTTAA,-0.06
10,GGATGCACGTGCAGGT,-0.01
11,GGGATCACGTGGCGAG,0.12
12,TATGACACGTGATCGG,-0.01
13,TGTCACACGTGTTATG,0.03
14,TGTTTCACGTGGGGAG,0.22
15,TTAATCACGTGTGAAG,0.26
16,GAAAACACGTGTGTGG,0.03
17,TTACACACGTGGGGTA,-0.2
18,GTTCGCACGTGCGGGT,-0.1
19,AAGGGCACGTGATGCT,-0.08
20,GGGTACACGTGAGCTT,0.18
21,TGTGACACGTGAGAAT,0.21
22,TTGATCACGTGATGCT,0.2
23,GTCTGCACGTGTTGGT,0.06
24,CTGTTCACGTGGGGCA,-0.02
25,GGGAGCACGTGCGTCG,-0.12
26,TATGTCACGTGCAGCT,0.17

row,Sequence,relative binding free energy [kcal/mol]
1,GTGAGCACGTGAGTGG,0.16
2,GAAGGCACGTGTGAGG,-0.18
3,AGTAACACGTGAAGGA,0.39
4,GCTTTCACGTGTTTTA,0.27
5,TTTATCACGTGTAATT,0.28
6,AGGGGCACGTGTAGCA,-0.24
7,ACATGCACGTGAGGGG,0.04
8,TGTAGCACGTGAATAG,0.07
9,TAAATCACGTGTGCTG,0.15
10,TGTGCCACGTGATGTT,0.01
11,AGGGTCACGTGAATTA,0.17
12,ACAGGCACGTGATGGT,-0.02
13,AAAGTCACGTGGGTTC,-0.05
14,TAGTACACGTGTGGAC,0.22
15,TAGCTCACGTGTATGG,0.18
16,TGTGTCACGTGCGAGC,-0.07
17,GAGTTCACGTGGAGGG,0.41
18,GTGGCCACGTGGGGGC,-0.12
19,ATGTACACGTGCAGTT,0.05
20,TTAGCCACGTGGGAGT,-0.17
21,GCGGTCACGTGTGTTT,0.2
22,TGTAGCACGTGAATGC,0.22
23,TTAGCCACGTGGAGTG,-0.23
24,TTTTTCACGTGTGTAC,0.3
25,GTGATCACGTGAAGGA,0.37
26,ATATACACGTGTGTCT,0.02

row,Sequence,relative binding free energy [kcal/mol]
1,TGTGTCACGTGATTTC,0.34
2,TTGACCACGTGTAGTG,-0.13
3,GCGGACACGTGGGGTT,-0.09
4,GGTCACACGTGTTGGG,0.09
5,TTGTGCACGTGTGGGT,0.12
6,GATTTCACGTGGAGTA,0.15
7,ATAATCACGTGGATGT,0.05
8,TTAACCACGTGGGGGT,-0.22
9,GCTTTCACGTGTATGG,0.27
10,TAGTTCACGTGTATGT,0.25
11,AAGGTCACGTGGTAAT,0.08
12,GTGTGCACGTGGTCAT,0.04
13,AACTACACGTGTGGTT,0.16
14,TATGGCACGTGGTAAA,-0.26
15,GCGTTCACGTGTTGTA,0.15
16,TAGAGCACGTGAAGGT,0.23
17,TAAAGCACGTGAGGGT,0.11
18,GGACGCACGTGGGTCG,-0.32
19,TCTCTCACGTGGGGTG,0.13
20,ATAGTCACGTGTTCTT,-0.08
21,TATGGCACGTGTATTT,0.06
22,GTTTACACGTGATCTT,0.29
23,TGTATCACGTGACGTT,0.18
24,TCGGACACGTGTGGTT,0.15
25,TTGTCCACGTGACGTG,0.26
26,AGATGCACGTGAAGCG,0.18

row,Sequence,relative binding free energy [kcal/mol]
1,TGTGCCACGTGTTGAT,-0.03
2,TGTGGCACGTGAATAG,0.11
3,AGGTTCACGTGGGTCG,0.24
4,TGCTACACGTGTGTGA,0.22
5,GAAATCACGTGGGTGG,0.17
6,TAGGTCACGTGCTGGA,0.06
7,TGAGTCACGTGTGGAT,0.12
8,CAGGCCACGTGGGGGC,-0.16
9,TTGTGCACGTGGTCGA,-0.18
10,GTGTACACGTGGATCG,0.24
11,GGGGTCACGTGACTAT,0.3
12,AAGTTCACGTGGTCGT,0.35
13,CATAACACGTGGGGGT,-0.29
14,GTTTCCACGTGATGAG,0.26
15,ATTGTCACGTGAGTAT,0.26
16,TGATTCACGTGGTCAG,0.32
17,GTACGCACGTGATGGA,0.1
18,GGTACCACGTGTTGTA,-0.07
19,TACTGCACGTGGGCGG,-0.08
20,GATAGCACGTGTGATG,0.02
21,ATCGGCACGTGTTTGT,-0.15
22,TTGTTCACGTGATATC,0.29
